Source: the supplement of paper PMC4604168 (melanoma cell lines)
Some of the results follow. Repeats are few or missing, and single values can be far off.

Key:
Experiment in all cases: cell count relative to DMSO control; melanoma cells; higher = more viable cells
Settings in all cases: library dose: low library concentration; 72 h
[1] = system: MZ2-MEL
[2] = system: MeWo
[3] = system: RPMI7951
[4] = system: RVH-421
[5] = system: SkMel28
[6] = system: SkMel30
[7] = system: SkMel5
[8] = system: UACC257
[9] = system: UACC62
[10] = system: WM115
[11] = system: WM1716
[12] = system: WM1745
[13] = system: WM3526
[14] = system: WM3619
[15] = system: WM451Lu
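Note: cell number obtained by counting DAPI-stained nuclei in high-throughput microscope images with image analysis software, screen run in 1,536-well plates.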

Structure (SMILES) | cell count [1] [%] | cell count [2] [%] | cell count [3] [%] | cell count [4] [%] | cell count [5] [%] | cell count [6] [%] | cell count [7] [%] | cell count [8] [%] | cell count [9] [%] | cell count [10] [%] | cell count [11] [%] | cell count [12] [%] | cell count [13] [%] | cell count [14] [%] | cell count [15] [%]
Cn1cncc1[C@@](N)(c1ccc(Cl)cc1)c1ccc2c(c1)c(-c1cccc(Cl)c1)cc(=O)n2C [tipifarnib] + Oc1cc(-c2nc(-c3ccccc3)[nH]c2-c2ccncc2)ccc1Cl [L779450] (first compound 0.01 µM, partner dose 0.2 µM) | 79.4 | 89.6 | 82.2 | 81.1 | 84.7 | 94.7 | 93.9 | 70.1 | 55.7 | 88.3 | 96.6 | 96 | 80.1 | 79.1 | 111
O=C(O)c1ccc(-c2c[nH]c3ncc(-c4ccccc4)cc23)cc1C1CCCC1 + O=C(Nc1ccccc1)c1cc([N+](=O)[O-])ccc1Cl [GW9662] (first compound 0.16 µM, partner dose 2 µM) | 99.7 | 91.2 | 94.2 | 116 | 86.4 | 93.9 | 95 | 90.6 | 105 | 95.2 | 106 | 104 | 91.9 | 112 | 99.5
COc1cc(Nc2ncc(F)c(Nc3ccc4c(n3)NC(=O)C(C)(C)O4)n2)cc(OC)c1OC [Tamatinib] + COC(=O)c1sccc1S(=O)(=O)Nc1ccc(Nc2ccccc2)cc1OC [GSK0660] (first compound 0.4 µM, partner dose 1 µM) | 89.5 | 90 | 75.7 | 102 | 87.6 | 87.9 | 86.5 | 65.7 | 73.7 | 89.8 | 99.3 | 67.3 | 102 | 99.3 | 94.1
O=C(Nc1cccc(Cl)c1)Nc1ncc(CCNc2ncnc3ccsc23)s1 + O=C(Nc1ccccc1)c1cc([N+](=O)[O-])ccc1Cl [GW9662] (first compound 0.0008 µM, partner dose 2 µM) | 94.5 | 91.2 | 111 | 104 | 86.3 | 111 | 88.1 | 97.6 | 88.5 | 69.5 | 113 | 80.2 | 121 | 86 | 103
CC1(C)NC(=O)N(c2ccc([N+](=O)[O-])c(C(F)(F)F)c2)C1=O [nilutamide] + Oc1cc(-c2nc(-c3ccccc3)[nH]c2-c2ccncc2)ccc1Cl [L779450] (first compound 1 µM, partner dose 0.2 µM) | 78 | 96.2 | 90 | 98.3 | 76.4 | 95.3 | 91.5 | 87.5 | 77 | 88.1 | 95.9 | 94.2 | 62 | 201 | 98.6
C[C@@H]1CCN(C(=O)CC#N)C[C@@H]1N(C)c1ncnc2[nH]ccc12 + COc1cc2ncnc(Nc3ccc(Oc4ccccc4)cc3)c2cc1OC [SrcI1] (first compound 1 µM, partner dose 2 µM) | 92.7 | 107 | 98.5 | 103 | 73.2 | 110 | 95.4 | 95.1 | 98.7 | 112 | 108 | 84.8 | 85.8 | 117 | 114
C[C@@H]1CCN(C(=O)CC#N)C[C@@H]1N(C)c1ncnc2[nH]ccc12 + O=C(O)C(=O)Nc1sc2c(c1C(=O)O)CCNC2 [TCS401] (first compound 1 µM, partner dose 1.66667 µM) | 104 | 97.6 | 102 | 91.7 | 93.7 | 97 | 83 | 108 | 96.5 | 94.3 | 109 | 96.6 | 114 | 114 | 107
Cn1cncc1[C@@](N)(c1ccc(Cl)cc1)c1ccc2c(c1)c(-c1cccc(Cl)c1)cc(=O)n2C [tipifarnib] + COc1cc(N2CCC(N3CCN(C)CC3)CC2)ccc1Nc1ncc(Cl)c(Nc2ccccc2S(=O)(=O)C(C)C)n1 [NVP-TAE684] (first compound 0.01 µM, partner dose 0.08 µM) | 104 | 79.1 | 86.2 | 116 | 87 | 114 | 88.4 | 64.9 | 68.5 | 65.2 | 105 | 82.9 | 82.7 | 107 | 87.8
O=C(O)c1ccc(-c2c[nH]c3ncc(-c4ccccc4)cc23)cc1C1CCCC1 + CC(C)CCN1c2nc(Nc3cc(F)c(O)c(F)c3)ncc2N(C)C(=O)C1C [BID1870] (first compound 0.16 µM, partner dose 0.2 µM) | 101 | 80.1 | 108 | 610 | 77.4 | 95 | 89.5 | 99.7 | 83.6 | 92.9 | 95.6 | 95.3 | 94.6 | 106 | 107
Cn1cncc1[C@@](N)(c1ccc(Cl)cc1)c1ccc2c(c1)c(-c1cccc(Cl)c1)cc(=O)n2C [tipifarnib] + CC(C)CCN1c2nc(Nc3cc(F)c(O)c(F)c3)ncc2N(C)C(=O)C1C [BID1870] (first compound 0.01 µM, partner dose 0.2 µM) | 96.1 | 79.8 | 81 | 90.9 | 87.8 | 78.8 | 111 | 69.9 | 71.1 | 80.9 | 84.3 | 91.5 | 88 | 89.7 | 98.8
O=C(O)c1ccc(-c2c[nH]c3ncc(-c4ccccc4)cc23)cc1C1CCCC1 + CCCCCCCCCCCC1=C(O)C(=O)C=C(O)C1=O [Embelin] (first compound 0.16 µM, partner dose 1.2 µM) | 102 | 105 | 98.9 | 105 | 112 | 115 | 105 | 99.6 | 105 | 94.2 | 107 | 105 | 98.8 | 104 | 103
O=C(O)c1ccc(-c2c[nH]c3ncc(-c4ccccc4)cc23)cc1C1CCCC1 + COC(=O)c1sccc1S(=O)(=O)Nc1ccc(Nc2ccccc2)cc1OC [GSK0660] (first compound 0.16 µM, partner dose 1 µM) | 92.1 | 83.6 | 94.6 | 95.3 | 84.9 | 102 | 86.2 | 101 | 85.8 | 107 | 95.8 | 98.4 | 105 | 81.4 | 96.1
Cn1cncc1[C@@](N)(c1ccc(Cl)cc1)c1ccc2c(c1)c(-c1cccc(Cl)c1)cc(=O)n2C [tipifarnib] + COc1ccc2c(c1)CCC1C2CCC2(C)C(NCCCCCCN3C(=O)C=CC3=O)CCC12 [U73122] (first compound 0.01 µM, partner dose 0.4 µM) | 99.7 | 76.6 | 69.7 | 109 | 86.2 | 91 | 99.8 | 97.2 | 90.5 | 93 | 80.3 | 85.1 | 96.7 | 84.3 | 97.8
C[C@@H]1CCN(C(=O)CC#N)C[C@@H]1N(C)c1ncnc2[nH]ccc12 + COc1ccc(COc2ccc(Cc3cnc(N)nc3N)cc2OC)cc1 [GW2580] (first compound 1 µM, partner dose 1 µM) | 102 | 100 | 84.5 | 107 | 108 | 112 | 98.7 | 101 | 111 | 92.6 | 94.4 | 89.4 | 120 | 102 | 97.3
COc1cc(Nc2ncc(F)c(Nc3ccc4c(n3)NC(=O)C(C)(C)O4)n2)cc(OC)c1OC [Tamatinib] + COc1ccc(COc2ccc(Cc3cnc(N)nc3N)cc2OC)cc1 [GW2580] (first compound 0.4 µM, partner dose 1 µM) | 95.4 | 92.5 | 88.7 | 75.7 | 75.7 | 96.5 | 88.2 | 90.8 | 93.1 | 89.1 | 95.4 | 63.8 | 83.2 | 101 | 107
Cn1cncc1[C@@](N)(c1ccc(Cl)cc1)c1ccc2c(c1)c(-c1cccc(Cl)c1)cc(=O)n2C [tipifarnib] + O=C(O)C(=O)Nc1sc2c(c1C(=O)O)CCNC2 [TCS401] (first compound 0.01 µM, partner dose 1.66667 µM) | 95 | 90.2 | 104 | 445 | 78.5 | 108 | 108 | 91.5 | 70.2 | 99.7 | 79.3 | 117 | 108 | 112 | 102
COc1cc(Nc2ncc(F)c(Nc3ccc4c(n3)NC(=O)C(C)(C)O4)n2)cc(OC)c1OC [Tamatinib] + O=C(O)C(=O)Nc1sc2c(c1C(=O)O)CCNC2 [TCS401] (first compound 0.4 µM, partner dose 1.66667 µM) | 83.7 | 96.7 | 88.1 | 96.2 | 76.2 | 90.7 | 83.1 | 53.7 | 96.6 | 89.1 | 91.7 | 56.8 | 73.1 | 96.7 | 101
O=C(O)c1ccc(-c2c[nH]c3ncc(-c4ccccc4)cc23)cc1C1CCCC1 + COc1ccc(-c2ccc3c(N4CCOCC4)nc(N4C[C@@H](C)O[C@@H](C)C4)nc3n2)cc1CO [KU0063794] (first compound 0.16 µM, partner dose 0.02 µM) | 92.9 | 84.4 | 87.1 | 88.2 | 70.8 | 90.5 | 98.8 | 59.1 | 84.4 | 89.6 | 115 | 96.7 | 91.6 | 100 | 89
O=C(O)c1ccc(-c2c[nH]c3ncc(-c4ccccc4)cc23)cc1C1CCCC1 + COc1cc2ncnc(Nc3ccc(Oc4ccccc4)cc3)c2cc1OC [SrcI1] (first compound 0.16 µM, partner dose 2 µM) | 89.6 | 88.8 | 110 | 123 | 86.2 | 113 | 98.7 | 99.9 | 84.3 | 93.2 | 108 | 92.8 | 89.2 | 96.8 | 114
